Consider 31 sequences from paper PMC12820563, “FoxP3 forms a head-to-head dimer in vivo and stabilizes its multimerization on adjacent microsatellites”.

Some of the results follow.

The assay has as its target T1, MBP-FoxP1dN (Mus musculus, UniProt P58462 326-579).
T1 sequence: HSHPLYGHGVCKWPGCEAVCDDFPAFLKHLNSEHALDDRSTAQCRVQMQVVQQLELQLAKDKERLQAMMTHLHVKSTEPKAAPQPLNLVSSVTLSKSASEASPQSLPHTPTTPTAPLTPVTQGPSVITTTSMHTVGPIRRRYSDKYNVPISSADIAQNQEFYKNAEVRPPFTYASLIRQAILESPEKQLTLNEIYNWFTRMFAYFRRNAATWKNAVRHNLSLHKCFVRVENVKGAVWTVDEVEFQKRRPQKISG
The assay can be described thus: PD-seq (MBP pull-down with sequencing); 20 mM Tris-HCl pH 7.5, 100 mM NaCl, 1.5 mM MgCl2, 0.4 uM protein, 0.1 uM dsDNA library, 30 min, room temperature, amylose pull-down; high values mean tight binding. Conditions: protein: recombinant; tags: His6-MBP; chain copies: 2; dsDNA, one strand shown. Put shortly:
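Binding is reads-per-million enrichment of pull-down over input, with replicates pooled. It comes from 30 min room-temperature incubation in Tris pH 7.5 buffer with NaCl and MgCl2 of 0.4 µM His6-MBP-tagged, N-terminally truncated mouse FoxP3 or FoxP1 fragment from E. coli with 0.1 µM Klenow-filled degenerate double-stranded DNA library, followed by amylose resin capture, three washes and Illumina sequencing of the released DNA.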
For “GATGATTGTTCTCCCAGCTGATGAATTCGGGTTCTCGAGTAAACAAATTTTCCTAATCTTTCTGTTCAAGCGCCATCTAC”, the binding signal is 0.806 RPM ratio (pull-down/input). As for “GATGATTGTTCTCCCAGCTGATGAATTGCCTCACTCGAGTAAACAAATTTTCCTAATCTTTCTGTTCAAGCGCCATCTAC”, the binding signal was 0.917 RPM ratio (pull-down/input).

Consider “GATGATTGTTCTCCCAGCTGATGAATTCGGCCCGTCGAGTAAACAAATTTTCCTAATCTTTCTGTTCAAGCGCCATCTAC”, for which the binding signal is 0.768 RPM ratio (pull-down/input).

Turning to “GATGATTGTTCTCCCAGCTGATGAATTATACCACTCGAGTAAACAAATTTTCCTAATCTTTCTGTTCAAGCGCCATCTAC”, the binding signal was 0.968 RPM ratio (pull-down/input). As to “GATGATTGTTCTCCCAGCTGATGAATTCTTACCATCGAGTAAACAAATTTTCCTAATCTTTCTGTTCAAGCGCCATCTAC”, the binding signal is 1 RPM ratio (pull-down/input).

“GATGATTGTTCTCCCAGCTGATGAATTACCCAGTTCGAGTAAACAAATTTTCCTAATCTTTCTGTTCAAGCGCCATCTAC”: the binding signal is 0.863 RPM ratio (pull-down/input). For “GATGATTGTTCTCCCAGCTGATGAATTCTGCCGGTCGAGTAAACAAATTTTCCTAATCTTTCTGTTCAAGCGCCATCTAC”, the binding signal is 0.736 RPM ratio (pull-down/input). Consider “GATGATTGTTCTCCCAGCTGATGAATTTTAGTCTTCGAGTAAACAAATTTTCCTAATCTTTCTGTTCAAGCGCCATCTAC”, for which the binding signal is 0.829 RPM ratio (pull-down/input).

“GATGATTGTTCTCCCAGCTGATGAATTTGCTTTGTCGAGTAAACAAATTTTCCTAATCTTTCTGTTCAAGCGCCATCTAC”: the binding signal was 1.16 RPM ratio (pull-down/input). The value for “GATGATTGTTCTCCCAGCTGATGAATTCACTATGTCGAGTAAACAAATTTTCCTAATCTTTCTGTTCAAGCGCCATCTAC” was 0.903 RPM ratio (pull-down/input).

Take “GATGATTGTTCTCCCAGCTGATGAATTGATCGCGTCGAGTAAACAAATTTTCCTAATCTTTCTGTTCAAGCGCCATCTAC”: the binding signal was 1.05 RPM ratio (pull-down/input).

For “GATGATTGTTCTCCCAGCTGATGAATTAATAATCTCGAGTAAACAAATTTTCCTAATCTTTCTGTTCAAGCGCCATCTAC”, the binding signal was 1.06 RPM ratio (pull-down/input). As to “GATGATTGTTCTCCCAGCTGATGAATTGCCTGGATCGAGTAAACAAATTTTCCTAATCTTTCTGTTCAAGCGCCATCTAC”, the binding signal was 0.884 RPM ratio (pull-down/input). The value for “GATGATTGTTCTCCCAGCTGATGAATTGGTTATATCGAGTAAACAAATTTTCCTAATCTTTCTGTTCAAGCGCCATCTAC” was 1.1 RPM ratio (pull-down/input); that for “GATGATTGTTCTCCCAGCTGATGAATTGCTTGGGTCGAGTAAACAAATTTTCCTAATCTTTCTGTTCAAGCGCCATCTAC” was 0.965 RPM ratio (pull-down/input); that for “GATGATTGTTCTCCCAGCTGATGAATTACTCATGTCGAGTAAACAAATTTTCCTAATCTTTCTGTTCAAGCGCCATCTAC” was 1.04 RPM ratio (pull-down/input). The value for “GATGATTGTTCTCCCAGCTGATGAATTAATAGTTTCGAGTAAACAAATTTTCCTAATCTTTCTGTTCAAGCGCCATCTAC” was 0.967 RPM ratio (pull-down/input); that for “GATGATTGTTCTCCCAGCTGATGAATTCCTACATTCGAGTAAACAAATTTTCCTAATCTTTCTGTTCAAGCGCCATCTAC” was 0.987 RPM ratio (pull-down/input); that for “GATGATTGTTCTCCCAGCTGATGAATTTCGTCTTTCGAGTAAACAAATTTTCCTAATCTTTCTGTTCAAGCGCCATCTAC” was 0.934 RPM ratio (pull-down/input).

As to “GATGATTGTTCTCCCAGCTGATGAATTAGACTCGTCGAGTAAACAAATTTTCCTAATCTTTCTGTTCAAGCGCCATCTAC”, the binding signal was 0.869 RPM ratio (pull-down/input). For the sequence “GATGATTGTTCTCCCAGCTGATGAATTTCTCAGGTCGAGTAAACAAATTTTCCTAATCTTTCTGTTCAAGCGCCATCTAC”, the binding signal is 0.7 RPM ratio (pull-down/input). The value for “GATGATTGTTCTCCCAGCTGATGAATTATAGGCGTCGAGTAAACAAATTTTCCTAATCTTTCTGTTCAAGCGCCATCTAC” was 0.934 RPM ratio (pull-down/input); that for “GATGATTGTTCTCCCAGCTGATGAATTTAGAGCATCGAGTAAACAAATTTTCCTAATCTTTCTGTTCAAGCGCCATCTAC” was 1.13 RPM ratio (pull-down/input); that for “GATGATTGTTCTCCCAGCTGATGAATTTTCGGTCTCGAGTAAACAAATTTTCCTAATCTTTCTGTTCAAGCGCCATCTAC” was 0.816 RPM ratio (pull-down/input). Regarding “GATGATTGTTCTCCCAGCTGATGAATTCTAATAATCGAGTAAACAAATTTTCCTAATCTTTCTGTTCAAGCGCCATCTAC”, the binding signal was 1.19 RPM ratio (pull-down/input). “GATGATTGTTCTCCCAGCTGATGAATTCGTGTGGTCGAGTAAACAAATTTTCCTAATCTTTCTGTTCAAGCGCCATCTAC”: the binding signal was 0.967 RPM ratio (pull-down/input). Next, “GATGATTGTTCTCCCAGCTGATGAATTTCGGTAGTCGAGTAAACAAATTTTCCTAATCTTTCTGTTCAAGCGCCATCTAC”: 0.768 RPM ratio (pull-down/input); “GATGATTGTTCTCCCAGCTGATGAATTGACGAGCTCGAGTAAACAAATTTTCCTAATCTTTCTGTTCAAGCGCCATCTAC”: 0.883 RPM ratio (pull-down/input); “GATGATTGTTCTCCCAGCTGATGAATTCTCTCCGTCGAGTAAACAAATTTTCCTAATCTTTCTGTTCAAGCGCCATCTAC”: 0.809 RPM ratio (pull-down/input). For the sequence “GATGATTGTTCTCCCAGCTGATGAATTTCATTATTCGAGTAAACAAATTTTCCTAATCTTTCTGTTCAAGCGCCATCTAC”, the binding signal is 0.95 RPM ratio (pull-down/input). With “GATGATTGTTCTCCCAGCTGATGAATTCTAACTTTCGAGTAAACAAATTTTCCTAATCTTTCTGTTCAAGCGCCATCTAC”, the binding signal is 0.935 RPM ratio (pull-down/input).
